Out of some 310,000 compounds screened, about 14,000 (4.5%) showed an effect of 50% or more. Effects have a minus sign here. The list shows a part of the results. Where a SMILES comes first, the peptide text is derived from it. The star is where a group is joined. Boc = CC(C)(C)OC(=O)*
molecular target: human ether-à-go-go-related gene (hERG) potassium channel (human, UniProt Q12809); experiment: primary screen, population patch clamp on CHO cells stably expressing hERG
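Also: peak tail current of the secondary pulse compared with the same well before compound.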

Chain of human ether-à-go-go-related gene (hERG) potassium channel (Q12809 whole entry, looked up): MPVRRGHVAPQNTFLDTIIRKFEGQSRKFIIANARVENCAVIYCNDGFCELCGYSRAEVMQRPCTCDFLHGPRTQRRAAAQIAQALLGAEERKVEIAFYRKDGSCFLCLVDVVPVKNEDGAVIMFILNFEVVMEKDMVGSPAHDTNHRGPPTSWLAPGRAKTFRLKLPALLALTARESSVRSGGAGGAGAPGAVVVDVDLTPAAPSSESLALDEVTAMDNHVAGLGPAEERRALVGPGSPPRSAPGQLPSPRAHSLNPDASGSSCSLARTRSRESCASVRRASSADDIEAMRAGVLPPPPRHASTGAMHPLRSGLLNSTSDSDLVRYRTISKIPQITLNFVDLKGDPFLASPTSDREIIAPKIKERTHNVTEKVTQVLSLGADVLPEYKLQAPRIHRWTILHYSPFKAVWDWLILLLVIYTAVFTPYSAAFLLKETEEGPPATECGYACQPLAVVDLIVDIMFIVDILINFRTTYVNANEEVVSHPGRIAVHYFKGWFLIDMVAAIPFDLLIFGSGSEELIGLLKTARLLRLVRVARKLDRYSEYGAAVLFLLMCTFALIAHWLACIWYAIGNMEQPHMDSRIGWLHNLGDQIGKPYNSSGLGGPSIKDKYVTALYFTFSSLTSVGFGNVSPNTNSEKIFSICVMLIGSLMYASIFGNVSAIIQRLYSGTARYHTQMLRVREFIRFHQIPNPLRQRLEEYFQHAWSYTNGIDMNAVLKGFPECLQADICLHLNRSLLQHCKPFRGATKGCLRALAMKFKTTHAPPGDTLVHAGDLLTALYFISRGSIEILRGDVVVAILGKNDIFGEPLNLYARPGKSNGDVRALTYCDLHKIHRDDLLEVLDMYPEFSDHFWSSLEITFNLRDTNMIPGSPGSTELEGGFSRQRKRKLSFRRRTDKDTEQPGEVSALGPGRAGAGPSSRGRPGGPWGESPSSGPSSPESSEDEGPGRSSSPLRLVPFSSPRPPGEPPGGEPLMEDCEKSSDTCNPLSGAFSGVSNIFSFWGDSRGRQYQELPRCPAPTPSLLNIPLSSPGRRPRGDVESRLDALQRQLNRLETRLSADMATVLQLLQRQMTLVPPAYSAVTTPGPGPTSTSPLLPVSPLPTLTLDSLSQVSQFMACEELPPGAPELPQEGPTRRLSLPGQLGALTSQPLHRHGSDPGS

SMILES	hERG current change (%, negative = inhibition) at 10uM [%]
COc1ccc(C2=Nn3c(nnc3-c3ccc(OC)cc3)SC2)cc1	-55
COc1ccccc1NC(=O)Nc1nc(CC(=O)Nc2ccc(N(C)C)cc2)cs1	2.98
CCN1CCN(C(=O)C(C)Nc2ccc(OC)cc2OC)CC1 (centres unmarked)	-6.18
Cc1ccccc1C(=O)Nc1nnc(-c2ccco2)s1	17.2
O=C(NCc1ccco1)NC1CCCCC1	-0.279
COc1cccc(NC(=O)c2ccc(CN3CCN(c4ccccc4)CC3)cc2)c1	-48.8
NC(=O)[C@@H]1CCCN1Cc1nc(-c2ccc(C(F)(F)F)cc2)no1	-5.68
COc1ccc(-n2ncc(C(C)NS(=O)(=O)c3cc(F)ccc3C)c2C)cc1 (centres unmarked)	-31.5
CC(C)CC(NC(=O)C(NC(=O)OC(C)(C)C)C(C)C)C(N)=O (stereo not drawn) (Boc-Val-Leu-NH2; configuration not given here)	5.69
C[C@@H]1C(=O)O[C@@H]2[C@H](O)C34[C@H]5C[C@@H](C(C)(C)C)C36[C@H](OC(=O)[C@@H]6O)OC4(C(=O)O5)[C@@]12O (some centres unmarked)	17.7
O=C(NCC1CCCO1)c1ccc(Cl)c(S(=O)(=O)N2CCOCC2)c1 (centres unmarked)	12.7
CCOc1ccc2nc(NC(=O)NC3CCCCC3)sc2c1	34.2
O=C(CN(CC1CCCO1)C(=O)CNS(=O)(=O)c1ccc(F)cc1)NCc1ccco1 (centres unmarked)	8.51
O=C(Nc1ccc(Br)c(C(F)(F)F)c1)c1ccccc1	27.3
CCOc1ccc(N=CNc2ccc(OCC)cc2)cc1	-17.5
Fc1cccc(CCN2C(=S)NC[C@@H]2CC2CCCCC2)c1	11.4
Cc1ccc(C(=O)N(C)CC(=O)Nc2ccc(F)c(F)c2F)o1	11.1
COc1ccccc1C(=O)NC(=O)COC(=O)CCOc1ccccc1C	4.28
Cc1ccc2nc(N(CCCN(C)C)C(=O)c3cc4ccccc4oc3=O)sc2c1.Cl	-33.7
COc1ccc(COCC(O)CN2CCc3ccccc3C2)cc1OC.Cl (centres unmarked)	1.52
COc1ccc(C)cc1S(=O)(=O)Nc1cccc(Cl)c1	19.1
CCCc1cc(=O)n2[nH]c(-c3ccc(C)cc3)cc2n1	-0.208

SMILES	hERG current change (%, negative = inhibition) at 10uM [%]
O=C1CCC/C(=N/NC(=O)c2ccc(CN3c4cccc5cccc(c45)S3(=O)=O)cc2)C1	-0.846
CCCC(=O)Nc1ccc(OCC(=O)OC)cc1	-3.23
CO/N=C/c1cn(-c2ccc(Cl)cc2)nn1	-2.53
COC(=O)C1=C(N)Oc2cc(C)n(Cc3cccnc3)c(=O)c2C1c1cc(OC)ccc1OC (centres unmarked)	3.97
Cn1c(=NC(=O)c2ccccc2[N+](=O)[O-])sc2cccc(F)c21	-1.1
Cc1ccccc1-c1nc(CS(=O)(=O)CC(=O)NCCCN2C(C)CCCC2C)c(C)o1 (centres unmarked)	-22
C=CCN(Cc1cccs1)C(=O)CN1CCN(S(=O)(=O)c2ccc3c(c2)OCCCO3)CC1	-40.2
O=C1c2ccccc2C(=O)N1CC1=CCS(=O)(=O)C1	4.13
Cc1nn(-c2ccc(Cl)cc2)c(N)c1C(O)(CSc1nccn1C)C(F)(F)F (centres unmarked)	-22.9
COc1cccc(CNC(=O)CCC2CCCN(C(=O)c3ccoc3)C2)c1 (centres unmarked)	24.9
COc1cc(C(=O)NNC(=O)c2cccc(Cl)c2)ccc1OCC(=O)N1CCOCC1	-43.6
C=CC(=O)NCc1ccc(-c2csnn2)cc1	-19.9
CC1(C(=O)NNC(=O)C2CCCCC2)CC1(Cl)Cl (centres unmarked)	15.2
COc1ccc(CNC(=O)COC(=O)CN2C(=O)NC3(CCCC3)C2=O)cc1	-8.23
CCC1=NN(C(=O)C(=O)NCCc2ccccc2)C(O)(C(F)(F)F)C1 (centres unmarked)	-9.06
Cc1ccccc1CSc1ccc(-c2ccc3c(c2)OCO3)nn1	-13.3
O=C(CSc1ccc2c(c1)OCCO2)Nc1ncccc1O	7.03
O=C(CC1Oc2ccccc2NC1=O)NCCc1ccccc1 (centres unmarked)	-4.18
CC(=O)c1ccc(OCc2cc(C(=O)N3CCN4CCCC4C3)no2)cc1 (centres unmarked)	8.97
O=c1[nH]c(=O)n(Cc2ccc(F)cc2)c(O)c1C=NCCCn1ccnc1	4.08
CC1(c2ccc3ccccc3c2)NC(=O)N(CC(=O)O)C1=O (centres unmarked)	-45.7
COc1ccccc1C1=NOC(C)(c2nnc(-c3cccc(Cl)c3)o2)C1 (centres unmarked)	8.33

— publication PMC4336329 (PLoS ONE, 2015)
